# Measurements: the supplement of paper PMC8728848
# The list shows a part of the results.
# B1: Threefoil (Haloarcula marismortui) (protein)
# chain: GSSHHHHHHHHHHSSGLVPRGSHMGDGYYKLVARHSGKALDVENASTSDGANVIQYSYSGGDNQQWRLVDLGDGYYKLVARHSGKALDVENASTSDGANVIQYSYSGGDNQQWRLVDLGDGYYKLVARHSGKALDVENASTSDGANVIQYSYSGGDNQQWRLVDL
# What was measured:
# Assay in all cases: glycan array binding signal (z-score within array); higher = stronger binding
# Conditions in all cases: glycan notation: IUPAC condensed, linker removed
# [1] = molecular target: Gal(b1-4)GlcNAc(b1-3)Gal(b1-4)GlcNAc(b1-3)[Gal(b1-4)GlcNAc(b1-3)Gal(b1-4)GlcNAc(b1-6)]GalNAc
# How it was run: (§1)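 Glycan array data came from 3228 arrays in the Consortium for Functional Glycomics database, and only arrays with an available protein sequence were kept. Glycan names were put into IUPAC-condensed notation, and columns mapping to the same glycan were averaged. The binding signal is a within-array Z-score, averaged across arrays of one protein sequence run at different concentrations or buffers and across linkers. A negative Z-score can be read as non-binding.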
# [2] = molecular target: Gal(b1-4)GlcNAc(b1-3)Gal(b1-4)GlcNAc(b1-6)[Gal(b1-3)]GalNAc
# How it was run: as §1
# [3] = molecular target: Gal(b1-4)GlcNAc(b1-3)Gal(b1-4)[Fuc(a1-3)]GlcNAc(b1-3)Gal(b1-4)[Fuc(a1-3)]GlcNAc
# How it was run: as §1
# [4] = molecular target: Gal(b1-4)GlcNAc(b1-3)GalNAc
# How it was run: as §1
# [5] = molecular target: Gal(b1-4)GlcNAc(b1-3)[Fuc(a1-3)GlcNAc(b1-6)]Gal(b1-4)Glc
# How it was run: as §1
# [6] = molecular target: Gal(b1-4)GlcNAc(b1-3)[Gal(b1-4)GlcNAc(b1-6)]Gal(b1-4)GlcNAc
# How it was run: as §1
# [7] = molecular target: Gal(b1-4)GlcNAc(b1-3)[GlcNAc(b1-6)]Gal(b1-4)GlcNAc
# How it was run: as §1
# [8] = molecular target: Gal(b1-4)GlcNAc(b1-6)Gal(b1-4)GlcNAc
# How it was run: as §1
# [9] = molecular target: Gal(b1-4)GlcNAc(b1-6)GalNAc
# How it was run: as §1
# [10] = molecular target: Gal(b1-4)GlcNAc(b1-6)[Gal(b1-3)]GalNAc
# How it was run: as §1
# [11] = molecular target: Gal(b1-4)GlcNAc(b1-6)[Gal(b1-4)GlcNAc(b1-3)]GalNAc
# How it was run: as §1
# Gal(b1-4)GlcNAc6P = molecular target: Gal(b1-4)GlcNAc6P
# How it was run: as §1
# Gal(b1-6)Gal = molecular target: Gal(b1-6)Gal
# How it was run: as §1
# Gal3S(b1-3)GalNAc = molecular target: Gal3S(b1-3)GalNAc
# How it was run: as §1
# Gal3S(b1-3)GlcNAc = molecular target: Gal3S(b1-3)GlcNAc
# How it was run: as §1
# [12] = molecular target: Gal3S(b1-3)[Fuc(a1-4)]GlcNAc
# How it was run: as §1
# Gal3S(b1-4)Glc = molecular target: Gal3S(b1-4)Glc
# How it was run: as §1
# Gal3S(b1-4)Glc6S = molecular target: Gal3S(b1-4)Glc6S
# How it was run: as §1
# Gal3S(b1-4)GlcNAc = molecular target: Gal3S(b1-4)GlcNAc
# How it was run: as §1
# [13] = molecular target: Gal3S(b1-4)[Fuc(a1-3)]Glc6S
# How it was run: as §1
# [14] = molecular target: Gal3S(b1-4)[Fuc(a1-3)]GlcNAc
# How it was run: as §1
# [15] = molecular target: Gal3S(b1-4)[Fuc(a1-3)]GlcNAc6S
# How it was run: as §1
# Gal3S4S(b1-4)GlcNAc = molecular target: Gal3S4S(b1-4)GlcNAc
# How it was run: as §1
# Gal3S6S(b1-4)GlcNAc = molecular target: Gal3S6S(b1-4)GlcNAc
# How it was run: as §1
# Gal3S6S(b1-4)GlcNAc6S = molecular target: Gal3S6S(b1-4)GlcNAc6S
# How it was run: as §1
# Gal4S(b1-4)GlcNAc = molecular target: Gal4S(b1-4)GlcNAc
# How it was run: as §1
# Gal4S6S(b1-4)GlcNAc = molecular target: Gal4S6S(b1-4)GlcNAc
# How it was run: as §1
# Gal6P(b1-4)GlcNAc = molecular target: Gal6P(b1-4)GlcNAc
# How it was run: as §1
# Gal6S(b1-3)GlcNAc = molecular target: Gal6S(b1-3)GlcNAc
# How it was run: as §1
# Gal6S(b1-3)GlcNAc6S = molecular target: Gal6S(b1-3)GlcNAc6S
# How it was run: as §1
# Gal6S(b1-4)Glc = molecular target: Gal6S(b1-4)Glc
# How it was run: as §1
# Gal6S(b1-4)Glc6S = molecular target: Gal6S(b1-4)Glc6S
# How it was run: as §1
# Gal6S(b1-4)GlcNAc = molecular target: Gal6S(b1-4)GlcNAc
# How it was run: as §1
# Gal6S(b1-4)GlcNAc6S = molecular target: Gal6S(b1-4)GlcNAc6S
# How it was run: as §1
# GalNAc(a1-3)Gal = molecular target: GalNAc(a1-3)Gal
# How it was run: as §1
# GalNAc(a1-3)GalNAc = molecular target: GalNAc(a1-3)GalNAc
# How it was run: as §1
# [16] = molecular target: GalNAc(a1-3)GalNAc(a1-3)Gal(a1-4)Gal(b1-4)GlcNAc
# How it was run: as §1
# [17] = molecular target: GalNAc(a1-3)GalNAc(b1-3)Gal(a1-4)Gal(b1-4)Glc
# How it was run: as §1
# GalNAc(b1-3)Gal = molecular target: GalNAc(b1-3)Gal
# How it was run: as §1
# [18] = molecular target: GalNAc(b1-3)Gal(a1-4)Gal(b1-4)GlcNAc
# How it was run: as §1
# [19] = molecular target: GalNAc(b1-3)Gal(a1-4)Gal(b1-4)GlcNAc(b1-3)Gal(b1-4)Glc
# How it was run: as §1
# [20] = molecular target: GalNAc(b1-3)Gal(a1-6)Gal(b1-4)Glc
# How it was run: as §1
# GalNAc(b1-3)GalNAc = molecular target: GalNAc(b1-3)GalNAc
# How it was run: as §1
# GalNAc(b1-3)GlcNAc = molecular target: GalNAc(b1-3)GlcNAc
# How it was run: as §1
# GalNAc(b1-4)Gal(b1-4)Glc = molecular target: GalNAc(b1-4)Gal(b1-4)Glc
# How it was run: as §1
binder,measurement,setting,value
B1,glycan array binding signal (z-score),[1],0.065
same,glycan array binding signal (z-score),[2],-0.066
same,glycan array binding signal (z-score),[3],-0.029
same,glycan array binding signal (z-score),[4],-0.171
same,glycan array binding signal (z-score),[5],3.85
same,glycan array binding signal (z-score),[6],1.36
same,glycan array binding signal (z-score),[7],0.055
same,glycan array binding signal (z-score),[8],0.046
same,glycan array binding signal (z-score),[9],-0.136
same,glycan array binding signal (z-score),[10],0.011
same,glycan array binding signal (z-score),[11],0.738
same,glycan array binding signal (z-score),Gal(b1-4)GlcNAc6P,-0.167
same,glycan array binding signal (z-score),Gal(b1-6)Gal,-0.053
same,glycan array binding signal (z-score),Gal3S(b1-3)GalNAc,-0.221
same,glycan array binding signal (z-score),Gal3S(b1-3)GlcNAc,-0.239
same,glycan array binding signal (z-score),[12],-0.175
same,glycan array binding signal (z-score),Gal3S(b1-4)Glc,-0.19
same,glycan array binding signal (z-score),Gal3S(b1-4)Glc6S,-0.215
same,glycan array binding signal (z-score),Gal3S(b1-4)GlcNAc,-0.158
same,glycan array binding signal (z-score),[13],0.052
same,glycan array binding signal (z-score),[14],-0.002
same,glycan array binding signal (z-score),[15],-0.038
same,glycan array binding signal (z-score),Gal3S4S(b1-4)GlcNAc,-0.214
same,glycan array binding signal (z-score),Gal3S6S(b1-4)GlcNAc,-0.173
same,glycan array binding signal (z-score),Gal3S6S(b1-4)GlcNAc6S,-0.221
same,glycan array binding signal (z-score),Gal4S(b1-4)GlcNAc,-0.155
same,glycan array binding signal (z-score),Gal4S6S(b1-4)GlcNAc,-0.227
same,glycan array binding signal (z-score),Gal6P(b1-4)GlcNAc,-0.211
same,glycan array binding signal (z-score),Gal6S(b1-3)GlcNAc,-0.211
same,glycan array binding signal (z-score),Gal6S(b1-3)GlcNAc6S,-0.298
same,glycan array binding signal (z-score),Gal6S(b1-4)Glc,-0.116
same,glycan array binding signal (z-score),Gal6S(b1-4)Glc6S,-0.055
same,glycan array binding signal (z-score),Gal6S(b1-4)GlcNAc,-0.262
same,glycan array binding signal (z-score),Gal6S(b1-4)GlcNAc6S,-0.194
same,glycan array binding signal (z-score),GalNAc(a1-3)Gal,-0.111
same,glycan array binding signal (z-score),GalNAc(a1-3)GalNAc,-0.161
same,glycan array binding signal (z-score),[16],-0.227
same,glycan array binding signal (z-score),[17],-0.187
same,glycan array binding signal (z-score),GalNAc(b1-3)Gal,-0.265
same,glycan array binding signal (z-score),[18],-0.056
same,glycan array binding signal (z-score),[19],-0.128
same,glycan array binding signal (z-score),[20],-0.171
same,glycan array binding signal (z-score),GalNAc(b1-3)GalNAc,-0.128
same,glycan array binding signal (z-score),GalNAc(b1-3)GlcNAc,-0.057
same,glycan array binding signal (z-score),GalNAc(b1-4)Gal(b1-4)Glc,-0.153
